Reference: paper PMC7819943, “Rice protein-binding microarrays: a tool to detect cis-acting elements near promoter regions in rice”
Some of the results follow.

The sequences below were run against T1, OsWOX13 (Oryza sativa, UniProt Q5QMM3 1-267) (assay: protein-binding microarray (RPBM); PBS, 2% BSA, 51.3 ng/ul salmon testes DNA, 50 uM zinc acetate, 200 nM TF, 25 C, 1 h; high values mean tight binding). Conditions: protein: recombinant; tags: N-terminal polyhistidine and DsRed monomer fusion (pET32a); label: CyDye5-dUTP incorporated in the synthesized complementary strand; 3' TTTTT single-stranded linker to array surface; dsDNA, one strand shown.
T1 sequence: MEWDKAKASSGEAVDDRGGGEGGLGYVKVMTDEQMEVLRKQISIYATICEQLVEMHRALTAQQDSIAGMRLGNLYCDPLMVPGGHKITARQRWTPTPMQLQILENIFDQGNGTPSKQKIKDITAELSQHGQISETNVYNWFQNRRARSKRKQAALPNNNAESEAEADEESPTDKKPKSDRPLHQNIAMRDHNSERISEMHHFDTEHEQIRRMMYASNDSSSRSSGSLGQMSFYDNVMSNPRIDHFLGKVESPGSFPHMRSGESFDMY
Outline: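 Ni–NTA purification followed expression in E. coli BL21-CodonPlus of transcription factors fused N-terminally to a polyhistidine tag and DsRed. At 200 nM in PBS with 2% BSA, salmon testes DNA and 50 µM zinc acetate, the protein was incubated for 1 h at 25 °C with a custom Agilent array that had been primer-extended with Cy5-dUTP and blocked with 2% BSA. After washing, the array was read on an Axon 4000B scanner. The binding signal is per-feature fluorescence intensity in arbitrary units.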

Row | Sequence | binding signal
1 | TATGTGTTATATTTCAATTAAAATGAAATTGCAGTGTGCGCGGAGTCACCTAGTGCAG | 7430 fluorescence intensity (a.u.)
2 | GTGAGTTTTCTGATTTTGATTTAAACCCGTTAGGTTGAAGCGGAGTCACCTAGTGCAG | 7690 fluorescence intensity (a.u.)
3 | TTATGGGGATAATTTGATCATCTAGATCTAGCATCCCTTGCGGAGTCACCTAGTGCAG | 4990 fluorescence intensity (a.u.)
4 | ACTTTAATTGCCTTATAATAATTTAACAATGTTGTTTTCTCGGAGTCACCTAGTGCAG | 23800 fluorescence intensity (a.u.)
5 | AGCCCAATTAATGGCTCATTCGCCGGGAAGAAAAGCTGGGCGGAGTCACCTAGTGCAG | 5350 fluorescence intensity (a.u.)
6 | AAATCACTTCAATCAAATATTGTTATACTGCTCCCTGCAGCGGAGTCACCTAGTGCAG | 17300 fluorescence intensity (a.u.)
7 | GTATATAATAGATAGATAGATATCTACGCTTGCACTGCGTCGGAGTCACCTAGTGCAG | 24200 fluorescence intensity (a.u.)
8 | TTGACTATAATTGATTTGGATAGTTGGCTATAATAAACCTCGGAGTCACCTAGTGCAG | 54500 fluorescence intensity (a.u.)
9 | AGACTAGATTAATATTAAACCACCTCAATAGTATGTCTACCGGAGTCACCTAGTGCAG | 8380 fluorescence intensity (a.u.)
10 | CGTGATGATTCATTTTCATCCAGTCACGAAATAATCCACGCGGAGTCACCTAGTGCAG | 12600 fluorescence intensity (a.u.)
11 | TAATTATTAATAATTAATTAACCATATAATAATGAGCTTTCGGAGTCACCTAGTGCAG | 32800 fluorescence intensity (a.u.)
12 | TAATTGCAAACCTAATTGACCAATATGCACATAAACAGTACGGAGTCACCTAGTGCAG | 9500 fluorescence intensity (a.u.)
13 | CGGATTGAACAGTAAAGTGCAGACAAAATCAAACTAAGCTCGGAGTCACCTAGTGCAG | 9870 fluorescence intensity (a.u.)
14 | AATGGTGATTATAATGATATATTCTGTATTTATTGTTTGCCGGAGTCACCTAGTGCAG | 27500 fluorescence intensity (a.u.)
15 | GATAATTGCATCTATCAATGTGGAATCGTACGTACCATTGCGGAGTCACCTAGTGCAG | 41300 fluorescence intensity (a.u.)
16 | TTTTGATCATTTCAATAAATTTGTACAGTACTCACTGAGACGGAGTCACCTAGTGCAG | 7650 fluorescence intensity (a.u.)
17 | TGTTTGGATTGCTAATCTGCTGTGCTAAGTCTGTTTAAATCGGAGTCACCTAGTGCAG | 7570 fluorescence intensity (a.u.)
18 | CCGTGTGATTTACCAGGTCAAAACCACTTCTCGACCAATCCGGAGTCACCTAGTGCAG | 8830 fluorescence intensity (a.u.)
19 | GCTGCTGATTGCATATATATATGTGTATGTAATTAGGAAGCGGAGTCACCTAGTGCAG | 31200 fluorescence intensity (a.u.)
20 | CAAAATTATCCCTCAACTAGCAGACCTTAGATATTTGGGTCGGAGTCACCTAGTGCAG | 6540 fluorescence intensity (a.u.)
21 | ACATAATAAGAAGGGTTAATTGGATCATTGTAAATTTGCTCGGAGTCACCTAGTGCAG | 19300 fluorescence intensity (a.u.)
22 | TTATAATTTATGCTTGTGCCAGTGCGATTGTTATCCAAAGCGGAGTCACCTAGTGCAG | 18100 fluorescence intensity (a.u.)
23 | TCTAATCAATCAAAAGCAATAAAGCTAGCGCACTAGGATTCGGAGTCACCTAGTGCAG | 28600 fluorescence intensity (a.u.)
24 | CCACTGACTACTGATGGGTGTGTTGATAGTGTTTTGTCAGCGGAGTCACCTAGTGCAG | 4660 fluorescence intensity (a.u.)
25 | ACGATGAATGCAAAAGTGACTGGATAGCAACACATTGCATCGGAGTCACCTAGTGCAG | 4510 fluorescence intensity (a.u.)
26 | AAAATTATAGTTACATTATAACTGCATTATAACTACAGTGCGGAGTCACCTAGTGCAG | 5170 fluorescence intensity (a.u.)
27 | TATTACCCGATTCCAATCAGCTGCTAATCGAGTGGTAATCCGGAGTCACCTAGTGCAG | 5980 fluorescence intensity (a.u.)

Row | Sequence | binding signal
28 | CCTATTGATTTAAGTTCAAACAAATTATGTGTTGCTTAAACGGAGTCACCTAGTGCAG | 24600 fluorescence intensity (a.u.)
29 | GGTTGGGGAAGGGAAGGGAAGGGAGAGGAGAGGGGCTCGCCGGAGTCACCTAGTGCAG | 6860 fluorescence intensity (a.u.)
30 | TGCCCTTATTTGCCCAATCACTAAGCGGATGATGACTAACCGGAGTCACCTAGTGCAG | 6690 fluorescence intensity (a.u.)
31 | GCGTTTGATTAAGCAAGACGGGTGAGAAATTTTATCCTATCGGAGTCACCTAGTGCAG | 8280 fluorescence intensity (a.u.)
32 | CAGTAATGTGAGCTATGACTGTGTGACAGAAACCCACGGTCGGAGTCACCTAGTGCAG | 3750 fluorescence intensity (a.u.)
33 | TTTGACATACGTATTCTAATTTCATGACAATTACTTAAGGCGGAGTCACCTAGTGCAG | 14800 fluorescence intensity (a.u.)
34 | CAGCATCAAAATGATTGGAGCAGTACTGCAGTGCTACGTTCGGAGTCACCTAGTGCAG | 13100 fluorescence intensity (a.u.)
35 | AATAATTAGTTTATCTATTTTAAGGAGCAAAGTCGGATAACGGAGTCACCTAGTGCAG | 36300 fluorescence intensity (a.u.)
36 | CTGCACTTTGATTAGATTAAGTACACAGAGTTCTTCTGCTCGGAGTCACCTAGTGCAG | 23600 fluorescence intensity (a.u.)
37 | GCACCCATGGAGATTGATTCGCGCAGAGACACCGTGAGGCCGGAGTCACCTAGTGCAG | 3480 fluorescence intensity (a.u.)
38 | TTCAATCAAATTTTAAATTTTAGCGTGAACTAAACACACCCGGAGTCACCTAGTGCAG | 24300 fluorescence intensity (a.u.)
39 | AATGATATCAATCTGAACACCCATGTAAACGGGTGCGAATCGGAGTCACCTAGTGCAG | 9940 fluorescence intensity (a.u.)
40 | GGTTCAATTAGGCCATTTGTTGTAGTCCAGAATGAAGGGCCGGAGTCACCTAGTGCAG | 13500 fluorescence intensity (a.u.)
41 | GCAATAAACTGACCACTTTAATCAATTGTTCATCTCCTTTCGGAGTCACCTAGTGCAG | 10500 fluorescence intensity (a.u.)
42 | CATAATTAGCAAGGCGATCAAAACTGTTGTTTATGTAATACGGAGTCACCTAGTGCAG | 8650 fluorescence intensity (a.u.)
43 | CCACAGCGTGATTTTGATCATTCTATACCACTGTTGCCTGCGGAGTCACCTAGTGCAG | 4960 fluorescence intensity (a.u.)
44 | AAATCAAAATCATTTGCGTCAAATCACATTGGCATGCTCACGGAGTCACCTAGTGCAG | 3160 fluorescence intensity (a.u.)
45 | TCAAACTTATCTAATTTTAACTAAGTATACATAACCCTAGCGGAGTCACCTAGTGCAG | 6800 fluorescence intensity (a.u.)
46 | GATGTTAATGAATGTGATCGCAACCCATGGCCATGCCCTTCGGAGTCACCTAGTGCAG | 4260 fluorescence intensity (a.u.)
47 | TTGATTCTGGACCTGATTGCACTCTCTCAGTAGGAAGCAGCGGAGTCACCTAGTGCAG | 9750 fluorescence intensity (a.u.)
48 | TCGTGATTGATTGATCGATCGATCACAACCGAGCGTTTTCCGGAGTCACCTAGTGCAG | 47000 fluorescence intensity (a.u.)
49 | CTGATTTAATAATCTAGATTACAATAATATTATTAAGCTGCGGAGTCACCTAGTGCAG | 41500 fluorescence intensity (a.u.)
50 | TGACTCATTATATAATGATGATAATGATATGTGTGTGCTACGGAGTCACCTAGTGCAG | 5620 fluorescence intensity (a.u.)
51 | CAAACAGTTAGCGGGTGATTTGATTTTGATCTATACTTCACGGAGTCACCTAGTGCAG | 15100 fluorescence intensity (a.u.)
52 | CTGATTATATAATTAGGGTAGTCTAATCACGCTCCCACATCGGAGTCACCTAGTGCAG | 48600 fluorescence intensity (a.u.)
53 | CTAAATTAGCGTCAAACATCCGATATGACATGGACTAAAACGGAGTCACCTAGTGCAG | 20200 fluorescence intensity (a.u.)
54 | CAACTTGATTAGTAGTAGTACTAGTTTGATTTTGTCCTGGCGGAGTCACCTAGTGCAG | 54200 fluorescence intensity (a.u.)
